The source of these data is the supplement of paper PMC4604168 (melanoma cell lines).

The list shows a part of the results. Single values are uncertain, as repeats are few or missing.
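Further: cells treated in 1,536-well plates, then fixed and DAPI-stained, with nuclei counted from automated high-throughput microscope images.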

The test system of this test is 501Mel. Kind of test: cell count relative to DMSO control; melanoma cells; higher = more viable cells. To be noted: library dose: standard library concentration; 72 h.
For the compound `CN(c1ncccc1CNc1nc(Nc2ccc3c(c2)CC(=O)N3)ncc1C(F)(F)F)S(C)(=O)=O` + O=C1NC(=O)/C(=C/c2ccc(-c3ccc(F)cc3O)o2)S1 [AS252424] (first compound 0.4 µM, partner dose 5 µM), the cell count was determined as 70%.
Compound `C=C(c1ccc(C(=O)O)cc1)c1cc2c(cc1C)C(C)(C)CCC2(C)C` [Bexarotene] + CCN(CC)CCCCNc1ncc2cc(-c3cc(OC)cc(OC)c3)c(NC(=O)NC(C)(C)C)nc2n1 [PD173074] (first compound 10 µM, partner dose 0.5 µM) showed a cell count of 80%.
The same measure for `NC1(c2ccc(-c3nc4ccn5c(=O)[nH]nc5c4cc3-c3ccccc3)cc2)CCC1` + CC(C)CCN1c2nc(Nc3cc(F)c(O)c(F)c3)ncc2N(C)C(=O)C1C [BID1870] (first compound 2 µM, partner dose 1 µM): 55.7%.
The same measure for `C=C(c1ccc(C(=O)O)cc1)c1cc2c(cc1C)C(C)(C)CCC2(C)C` [Bexarotene] + O=S(=O)(c1ccccc1)N(CC(F)(F)F)c1ccc(C(O)(C(F)(F)F)C(F)(F)F)cc1 [T0901317] (first compound 10 µM, partner dose 7 µM): 68.3%.
As for `CS(=O)(=O)c1ccc(C(=O)Nc2ccc(Cl)c(-c3ccccn3)c2)c(Cl)c1` [vismodegib] + O=C(Nc1ccccc1)c1cc([N+](=O)[O-])ccc1Cl [GW9662] (first compound 5 µM, partner dose 10 µM), the figure is 86.7%; as for `C=C(c1ccc(C(=O)O)cc1)c1cc2c(cc1C)C(C)(C)CCC2(C)C` [Bexarotene] + CC(C)CCN1c2nc(Nc3cc(F)c(O)c(F)c3)ncc2N(C)C(=O)C1C [BID1870] (first compound 10 µM, partner dose 1 µM), 63.7%.
The compound `NC1(c2ccc(-c3nc4ccn5c(=O)[nH]nc5c4cc3-c3ccccc3)cc2)CCC1` + COc1ccc(COc2ccc(Cc3cnc(N)nc3N)cc2OC)cc1 [GW2580] (first compound 2 µM, partner dose 5 µM) showed a cell count of 70.6%.
The same measure for `CS(=O)(=O)c1ccc(C(=O)Nc2ccc(Cl)c(-c3ccccn3)c2)c(Cl)c1` [vismodegib] + Oc1nc(-c2ccc(C(F)(F)F)cc2)nc2c1CSCC2 [XAV939] (first compound 5 µM, partner dose 10 µM): 82.8%.
The same measure for `NC1(c2ccc(-c3nc4ccn5c(=O)[nH]nc5c4cc3-c3ccccc3)cc2)CCC1` + O=C(Nc1ccccc1)c1cc([N+](=O)[O-])ccc1Cl [GW9662] (first compound 2 µM, partner dose 10 µM): 69.5%; for `CCCS(=O)(=O)Nc1ccc(F)c(C(=O)c2c[nH]c3ncc(Cl)cc23)c1F` + O=C1NC(=O)/C(=C/c2ccc(-c3ccc(F)cc3O)o2)S1 [AS252424] (first compound 0.4 µM, partner dose 5 µM): 90.4%.
The same measure for `NC1(c2ccc(-c3nc4ccn5c(=O)[nH]nc5c4cc3-c3ccccc3)cc2)CCC1` + O=C(O)C(=O)Nc1sc2c(c1C(=O)O)CCNC2 [TCS401] (first compound 2 µM, partner dose 8.33333 µM): 80.7%.
`C=C(c1ccc(C(=O)O)cc1)c1cc2c(cc1C)C(C)(C)CCC2(C)C` [Bexarotene] + CCCCCCCCCCCC1=C(O)C(=O)C=C(O)C1=O [Embelin] (first compound 10 µM, partner dose 6 µM) had a cell count of 97.7%.
In turn, `CN(c1ncccc1CNc1nc(Nc2ccc3c(c2)CC(=O)N3)ncc1C(F)(F)F)S(C)(=O)=O` + COc1ccc(-c2ccc3c(N4CCOCC4)nc(N4C[C@@H](C)O[C@@H](C)C4)nc3n2)cc1CO [KU0063794] (first compound 0.4 µM, partner dose 0.1 µM) gave a cell count of 95.8%.
As for `CN(c1ncccc1CNc1nc(Nc2ccc3c(c2)CC(=O)N3)ncc1C(F)(F)F)S(C)(=O)=O` + COC(=O)c1sccc1S(=O)(=O)Nc1ccc(Nc2ccccc2)cc1OC [GSK0660] (first compound 0.4 µM, partner dose 5 µM), the figure is 68.3%; as for `NC1(c2ccc(-c3nc4ccn5c(=O)[nH]nc5c4cc3-c3ccccc3)cc2)CCC1` + O=c1cc(-c2cccc3c2Sc2ccccc2S3)oc(N2CCOCC2)c1 [KU55933] (first compound 2 µM, partner dose 5 µM), 78.6%.
